For 14 compounds, Potency results are on record in PubChem BioAssay (Tox21).

The nature of assay [1]: A CellTox Green Cytotoxicity Assay to monitor cytotoxicity in HEK293 cells - 24 hour (AID 1224875). Further: nearly all actives have a fitted effect of over 45% in size. The essentials:
(§1)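 Cytotoxicity was tracked continuously in HEK293 cells by a DNA-binding dye excluded from viable cells. Compounds were transferred in DMSO 5 h after seeding; fluorescence was recorded at intervals up to 40 h.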

Assay [2] deals with Androgen receptor (Homo sapiens) (UniProt P10275). Nature of the assay: qHTS assay to identify small molecule agonists of the androgen receptor (AR) signaling pathway using the MDA cell line (AID 743040; further: nearly all actives have a fitted effect of over 20% in size). A general note: In qHTS, concentration-response curves come from the screen itself.
Assay [3] can be described thus: qHTS assay to identify small molecule agonists of the sonic hedgehog signaling (Shh) pathway (AID 1259368; calls by dose curve; further: nearly all actives have a fitted effect of over 15% in size). Summed up:
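Steps: seed 3T3 Gli1-Luc cells, incubate 4 hr at 37 C, pin-transfer compounds in DMSO alongside a positive control, incubate 24 hr, add luciferase detection reagent, wait 30 min at room temperature, read luminescence.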

Assay [4] is described as follows: qHTS assay for small molecules that induce genotoxicity in human embryonic kidney cells expressing luciferase-tagged ATAD5 - cell viability (AID 651634; calls by dose curve; further: nearly all actives have a fitted effect of over 25% in size). Summed up:
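Cytotoxicity counterscreen in HEK293T cells bearing an ATAD5-luciferase reporter: live-cell protease activity measured by CellTiter-Fluor fluorescence after 15.5 hr compound exposure.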

Assay [5] can be described thus: qHTS assay to identify small molecule antagonists of the glucocorticoid receptor (GR) signaling pathway - cell viability counter screen (AID 720693). Further: nearly all actives have a fitted effect of over 55% in size.
A short description of assay [6]: qHTS assay to identify small molecule agonists of the constitutive androstane receptor (CAR) signaling pathway - cell viability counter screen (AID 1224836). Further: nearly all actives have a fitted effect of over 45% in size. Summed up:
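Cell viability multiplexed with the CAR agonist screen: CellTiter-Fluor fluorescence after 23 hr at 37 C. HepG2-CYP2B6-hCAR cells got compounds at 15 concentrations with PK11195 at 0.75 uM final.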

A short description of assay [7]: qHTS assay to identify small molecule antagonists of the constitutive androstane receptor (CAR) signaling pathway - cell viability counter screen (AID 1224837). Further: nearly all actives have a fitted effect of over 45% in size. Summed up:
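Multiplexed cytotoxicity read-out for the CAR antagonist screen: double-stable HepG2-CYP2B6-hCAR cells co-treated with 50 nM CITCO (final) and compound over 15 concentrations, incubated 23 hr, then assessed by CellTiter-Fluor fluorescence.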

Assay [8] in a line: A CellTox Green Cytotoxicity Assay to monitor cytotoxicity in HEK293 cells - 16 hour (AID 1224888). Further: nearly all actives have a fitted effect of over 35% in size. Summed up:
as §1

Assay [9] is described as follows: qHTS assay to identify small molecule antagonists of the thyroid receptor (TR) signaling pathway (AID 743065). Further: nearly all actives have a fitted effect of over 55% in size. Summed up: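 GH3.TRE-Luc rat pituitary cells carrying two TR response elements driving luciferase were plated for 4 h, given compound plus 1 nM T3 (final), and incubated 23.5 h at 37 C. ONE-Glo luminescence measured reporter inhibition; CellTiter-Fluor fluorescence tracked cytotoxicity.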

Assay [10] can be described thus: qHTS assay to identify small molecule antagonists of the progesterone receptor (PR) signaling pathway - cell viability counter screen (AID 1346798). Further: nearly all actives have a fitted effect of over 50% in size. The essentials: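 Cytotoxicity read as CellTiter-Glo luminescence (30 min, room temperature) in the same wells as the beta-lactamase readout. HEK293T PR-UAS-bla cells in charcoal-stripped 2% FBS received compound and R5020, then 16 h at 37C, 5% CO2.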

The nature of assay [11]: qHTS assay to identify small molecule antagonists of the peroxisome proliferator-activated receptor gamma (PPARg) signaling pathway - cell viability counter screen (AID 743194). Further: nearly all actives have a fitted effect of over 55% in size. The essentials:
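PPARg-UAS-bla HEK293H cells were plated, rested 5 h at 37 C, then treated with compounds plus rosiglitazone (50 nM final) for 17 h at 37 C; viability was then read by CellTiter-Glo luminescence after 30 min at room temperature.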

Assay [12] can be described thus: qHTS assay to identify small molecule antagonists of the androgen receptor (AR) signaling pathway using the MDA cell line - cell viability counter screen (AID 743041; further: nearly all actives have a fitted effect of over 45% in size). The essentials: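 Viability counter screen run alongside the AR antagonist reporter: cells seeded 5 h before compound, R1881 added, 16 h incubation at 37C without CO2, fluorescent CellTiter-Fluor signal quantified.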

In assay [13] the target is Peroxisome proliferator-activated receptor delta (Homo sapiens) (UniProt Q03181). The assay is described as follows: qHTS assay to identify small molecule agonists of the peroxisome proliferator-activated receptor delta (PPARd) signaling pathway (AID 743212; calls by dose curve;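 further: HEK293H cells with PPARd UAS beta-lactamase reporter GeneBLAzer system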). The essentials: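 A PPARd-bla HEK293H line with beta-lactamase under an Upstream Activator Sequence is treated with compounds at 37 C. Substrate loading for 2 h at room temperature precedes the fluorescence measurement.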

Assay [14] can be described thus: qHTS assay to identify small molecule antagonists of the estrogen receptor alpha (ER-alpha) signaling pathway using the BG1 cell line in the presence of 0.1 nM 17-beta-estradiol - cell viability counter screen (AID 1259241). Further: nearly all actives have a fitted effect of over 40% in size. The essentials: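 Cytotoxicity counter-screen: live-cell protease activity measured by fluorescence (30 min reagent step) in the same wells. Cells were VM7Luc4E2 with endogenous ER-alpha and ERE-driven luciferase, treated 22 hr at 37C alongside 0.1 nM 17beta-estradiol final.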

Inconclusive results are not listed. Unless noted, the call rests on the fitted dose curve; in most records, active means well fitted curve in the direction sought with a large enough effect in the repeat runs; inconclusive means weak or mixed curves; inactive means no such curve, though single readings can be large; an effect the other way counts as inactive or inconclusive. Where a structure was tested more than once in an assay, its records may differ in their call. Certain results were filed several times, with different values. Only these are listed. An entry can have further records. Values that stand side by side repeat one measurement (runs, samples, wells, individuals or studies). A tag in brackets gives the origin of a value. The letters are not those of the source and start again with each entry.
Potency means the concentration at half of the fitted maximal effect.

Sequence of UniProt Q03181 (Q03181 whole entry, looked up): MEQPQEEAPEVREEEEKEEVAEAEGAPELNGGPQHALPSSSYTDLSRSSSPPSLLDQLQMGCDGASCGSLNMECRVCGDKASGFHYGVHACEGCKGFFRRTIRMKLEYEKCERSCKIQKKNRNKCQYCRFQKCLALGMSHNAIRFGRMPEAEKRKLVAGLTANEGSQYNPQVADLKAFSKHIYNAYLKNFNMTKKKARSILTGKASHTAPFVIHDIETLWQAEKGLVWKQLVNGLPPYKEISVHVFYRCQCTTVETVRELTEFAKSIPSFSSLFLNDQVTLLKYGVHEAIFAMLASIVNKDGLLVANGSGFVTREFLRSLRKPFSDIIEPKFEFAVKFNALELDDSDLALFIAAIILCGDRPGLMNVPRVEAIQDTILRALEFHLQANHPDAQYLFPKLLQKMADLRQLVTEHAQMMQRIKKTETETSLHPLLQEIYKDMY
Sequence of UniProt P10275 (P10275 whole entry, looked up): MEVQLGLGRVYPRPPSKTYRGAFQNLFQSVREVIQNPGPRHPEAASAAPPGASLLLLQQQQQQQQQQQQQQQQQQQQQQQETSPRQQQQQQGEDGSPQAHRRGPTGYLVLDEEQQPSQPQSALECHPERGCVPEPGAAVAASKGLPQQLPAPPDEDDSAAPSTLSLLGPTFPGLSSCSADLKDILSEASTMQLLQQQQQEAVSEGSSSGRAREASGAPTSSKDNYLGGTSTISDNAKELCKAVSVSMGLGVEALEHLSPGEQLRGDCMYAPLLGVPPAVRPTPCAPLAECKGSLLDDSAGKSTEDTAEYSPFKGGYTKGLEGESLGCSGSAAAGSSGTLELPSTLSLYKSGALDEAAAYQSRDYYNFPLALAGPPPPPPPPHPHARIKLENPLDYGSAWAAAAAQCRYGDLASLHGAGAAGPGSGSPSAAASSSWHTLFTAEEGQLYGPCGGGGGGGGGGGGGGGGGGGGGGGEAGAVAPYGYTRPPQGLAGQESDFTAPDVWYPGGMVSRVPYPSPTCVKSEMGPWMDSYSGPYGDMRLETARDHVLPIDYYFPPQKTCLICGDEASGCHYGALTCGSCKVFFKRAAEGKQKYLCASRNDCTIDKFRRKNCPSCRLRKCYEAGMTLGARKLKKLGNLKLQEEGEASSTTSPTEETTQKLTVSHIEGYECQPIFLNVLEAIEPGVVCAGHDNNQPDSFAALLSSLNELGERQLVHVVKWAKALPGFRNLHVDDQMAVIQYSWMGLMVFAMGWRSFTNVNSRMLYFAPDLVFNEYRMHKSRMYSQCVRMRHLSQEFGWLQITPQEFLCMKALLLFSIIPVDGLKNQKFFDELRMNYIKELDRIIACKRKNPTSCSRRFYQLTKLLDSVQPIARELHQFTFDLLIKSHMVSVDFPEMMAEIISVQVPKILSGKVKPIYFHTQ

With `CC(C)(C)c1ccccc1O`, in assay [1], the Potency entry was “active: 49.5 µM [sample A] and inactive [sample B]”.

With `Nc1ccc(Cl)cc1N`, the Potency result in assay [2] is “inactive [sample A] and active: 9.69 µM [sample B]”; in [3], “inactive [sample A] and active: 686 nM [sample B]”.

`Oc1cc(Cl)ccc1Oc1ccc(Cl)cc1Cl`: the Potency entry in [4] was “inactive [sample A] and active: 8.84 µM [sample B]”; in [5], “inactive [sample A] and active: 22.4 µM [sample B]”; in assay [6], “active: 49.7 µM [sample A] and inactive [sample B]”; in [7] it was “active: 55.8 µM [sample A] and inactive [sample B]”; in [8], “active: 22.4 µM [sample A] and inactive [sample B]”.

Take `O=C(Nc1ccc(Br)cc1)c1cc(Br)cc(Br)c1O`: the Potency entry in assay [4] is “inactive [sample A] and active: 27.2 µM [sample B] and active: 30.6 µM [sample C]”; in [1], “inactive [sample A] and active: 38.9 µM [sample B] and inactive [sample C]”; in [8], “inactive [sample A] and active: 34.7 µM [sample B] and inactive [sample C]”.

Consider `CC(C)C(=O)OCC(C)(C)C(OC(=O)C(C)C)C(C)C` (centres undefined), for which the Potency entry in assay [9] is “active: 69.1 µM [sample A] and inactive [sample B]”.

As for `CCCCNC(=O)n1c(NC(=O)OC)nc2ccccc21`, the Potency result in assay [10] is “active: 48.3 µM [sample A] and inactive [sample B]”.

Regarding `CCC(=O)O[C@H]1CC[C@H]2[C@@H]3CCC4=CC(=O)CC[C@]4(C)[C@H]3CC[C@]12C`, the Potency entry in assay [9] is “inactive [sample A] and active: 30.6 µM [sample B]”; in assay [8], “active: 43.6 µM [sample A] and inactive [sample B]”.

Take `O=C1C=CC(=O)C=C1`: in [11], the Potency result is “inactive [sample A] and active: 43.6 µM [sample B]”.

As to `CCCCCc1cc(O)cc(O)c1`, in assay [4], the Potency result is “inactive [sample A] and active: 54.5 µM [sample B]”.

For the compound `Oc1c(Cl)c(Cl)c(Cl)c(Cl)c1Cl`, the Potency entry in assay [4] is “active: 26.8 µM [sample A] and inactive [sample B]”; in [5], “active: 48 µM [sample A] and inactive [sample B]”.

As for `O=C(CCl)c1ccccc1`, the Potency result in assay [9] is “inactive [sample A] and active: 54.5 µM [sample B]”.

Regarding `Brc1ccc(Oc2cc(Br)c(Br)cc2Br)c(Br)c1`, the Potency result in assay [9] is “inactive [sample A] and active: 43.6 µM [sample B]”.

For the compound `C[C@]12CCC(=O)C[C@@H]1CC[C@@H]1[C@@H]2CC[C@]2(C)[C@@H](O)CC[C@@H]12`, the Potency entry in assay [10] is “active: 48 µM [sample A] and inactive [sample B]”.

Take `CCC(C)c1cc([N+](=O)[O-])cc([N+](=O)[O-])c1O` (centres undefined): the Potency entry in assay [4] was “inactive [sample A] and active: 8.63 µM [sample B]”; in [12], “inactive [sample A] and active: 43.3 µM [sample B]”; in assay [9] it was “inactive [sample A] and active: 9.69 µM [sample B]”; in assay [13], “inactive [sample A] and active: 54.9 µM [sample B]”; in [6] it was “inactive [sample A] and active: 19.3 µM [sample B]”; in [7], “inactive [sample A] and active: 21.7 µM [sample B]”. The Potency result in assay [14] is “inactive [sample A] and active: 21.7 µM [sample B]”.
